# Experimental data reported in the supplement of paper PMC8728848.
# The other results are listed elsewhere or left out.
# B1: CBM32-1 (Clostridium perfringens) (protein)
# chain: MGSSHHHHHHSSGLVPRGSHMASGVEITEGVTVTAKGNTEGNTADLAIDGDLSTYWESSNDYKWIEVDLGGIYELSKIEIFNKDEAVYKYNIYASEDGENFNKIAYKNNDNVSDSNGNVHTIDNVRAGKIRIDVVQNSNSDRVNIAEINVFG
# What was measured:
# Test in all cases: glycan array binding signal (z-score within array); higher = stronger binding
# Details in all cases: glycan notation: IUPAC condensed, linker removed
# Gal3S(b1-4)GlcNAc = molecular target: Gal3S(b1-4)GlcNAc
# Procedure, shortened: (§1)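 Glycan array data were curated from 3228 arrays in the Consortium for Functional Glycomics database and kept only where the protein sequence was available. Glycan names were converted to IUPAC-condensed notation, and columns mapping to the same glycan were averaged. The binding signal is a within-array Z-score, averaged across arrays of the same protein sequence at different concentrations or buffers and across linkers. Negative Z-scores can be read as non-binding.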
# Gal3S(b1-4)GlcNAc6S = molecular target: Gal3S(b1-4)GlcNAc6S
# Procedure, shortened: as §1
# [1] = molecular target: Gal3S(b1-4)[Fuc(a1-3)]Glc
# Procedure, shortened: as §1
# Gal3S4S(b1-4)GlcNAc = molecular target: Gal3S4S(b1-4)GlcNAc
# Procedure, shortened: as §1
# Gal3S6S(b1-4)GlcNAc = molecular target: Gal3S6S(b1-4)GlcNAc
# Procedure, shortened: as §1
# Gal3S6S(b1-4)GlcNAc6S = molecular target: Gal3S6S(b1-4)GlcNAc6S
# Procedure, shortened: as §1
# Gal4S(b1-4)GlcNAc = molecular target: Gal4S(b1-4)GlcNAc
# Procedure, shortened: as §1
# Gal4S6S(b1-4)GlcNAc = molecular target: Gal4S6S(b1-4)GlcNAc
# Procedure, shortened: as §1
# Gal6S(b1-4)Glc = molecular target: Gal6S(b1-4)Glc
# Procedure, shortened: as §1
# Gal6S(b1-4)Glc6S = molecular target: Gal6S(b1-4)Glc6S
# Procedure, shortened: as §1
# Gal6S(b1-4)GlcNAc = molecular target: Gal6S(b1-4)GlcNAc
# Procedure, shortened: as §1
# Gal6S(b1-4)GlcNAc6S = molecular target: Gal6S(b1-4)GlcNAc6S
# Procedure, shortened: as §1
# GalNAc(a1-3)Gal = molecular target: GalNAc(a1-3)Gal
# Procedure, shortened: as §1
# GalNAc(a1-3)GalNAc = molecular target: GalNAc(a1-3)GalNAc
# Procedure, shortened: as §1
# GalNAc(b1-3)Gal = molecular target: GalNAc(b1-3)Gal
# Procedure, shortened: as §1
# [2] = molecular target: GalNAc(b1-3)Gal(a1-4)Gal(b1-4)GlcNAc
# Procedure, shortened: as §1
# GalNAc(b1-3)GalNAc = molecular target: GalNAc(b1-3)GalNAc
# Procedure, shortened: as §1
# GalNAc(b1-4)GlcNAc = molecular target: GalNAc(b1-4)GlcNAc
# Procedure, shortened: as §1
# Glc(a1-4)Glc = molecular target: Glc(a1-4)Glc
# Procedure, shortened: as §1
# Glc(a1-6)Glc(a1-6)Glc = molecular target: Glc(a1-6)Glc(a1-6)Glc
# Procedure, shortened: as §1
# Glc(b1-4)Glc = molecular target: Glc(b1-4)Glc
# Procedure, shortened: as §1
# Glc(b1-6)Glc = molecular target: Glc(b1-6)Glc
# Procedure, shortened: as §1
# GlcA(b1-3)Gal = molecular target: GlcA(b1-3)Gal
# Procedure, shortened: as §1
# GlcA(b1-3)GlcNAc = molecular target: GlcA(b1-3)GlcNAc
# Procedure, shortened: as §1
# GlcA(b1-6)Gal = molecular target: GlcA(b1-6)Gal
# Procedure, shortened: as §1
# [3] = molecular target: GlcNAc(a1-3)Gal(b1-4)GlcNAc
# Procedure, shortened: as §1
# [4] = molecular target: GlcNAc(a1-6)Gal(b1-4)GlcNAc
# Procedure, shortened: as §1
# [5] = molecular target: GlcNAc(b1-2)Gal(b1-3)GalNAc
# Procedure, shortened: as §1
# [6] = molecular target: GlcNAc(b1-2)Man(a1-3)[GlcNAc(b1-2)Man(a1-6)]Man(b1-4)GlcNAc(b1-4)GlcNAc
# Procedure, shortened: as §1
# GlcNAc(b1-3)Gal = molecular target: GlcNAc(b1-3)Gal
# Procedure, shortened: as §1
# [7] = molecular target: GlcNAc(b1-3)Gal(b1-3)GalNAc
# Procedure, shortened: as §1
# GlcNAc(b1-3)Gal(b1-4)Glc = molecular target: GlcNAc(b1-3)Gal(b1-4)Glc
# Procedure, shortened: as §1
# [8] = molecular target: GlcNAc(b1-3)Gal(b1-4)GlcNAc
# Procedure, shortened: as §1
# [9] = molecular target: GlcNAc(b1-3)Gal(b1-4)GlcNAc(b1-3)Gal(b1-4)GlcNAc
# Procedure, shortened: as §1
# GlcNAc(b1-3)GalNAc = molecular target: GlcNAc(b1-3)GalNAc
# Procedure, shortened: as §1
# GlcNAc(b1-3)Man = molecular target: GlcNAc(b1-3)Man
# Procedure, shortened: as §1
# [10] = molecular target: GlcNAc(b1-3)[GlcNAc(b1-4)][GlcNAc(b1-6)]GlcNAc
# Procedure, shortened: as §1
# [11] = molecular target: GlcNAc(b1-3)[GlcNAc(b1-6)]Gal(b1-4)GlcNAc
# Procedure, shortened: as §1
# [12] = molecular target: GlcNAc(b1-3)[GlcNAc(b1-6)]GalNAc
# Procedure, shortened: as §1
# [13] = molecular target: GlcNAc(b1-4)Gal(b1-4)GlcNAc
# Procedure, shortened: as §1
# GlcNAc(b1-4)GlcNAc = molecular target: GlcNAc(b1-4)GlcNAc
# Procedure, shortened: as §1
# [14] = molecular target: GlcNAc(b1-4)GlcNAc(b1-4)GlcNAc
# Procedure, shortened: as §1
# [15] = molecular target: GlcNAc(b1-4)GlcNAc(b1-4)GlcNAc(b1-4)GlcNAc(b1-4)GlcNAc
# Procedure, shortened: as §1
# [16] = molecular target: GlcNAc(b1-4)GlcNAc(b1-4)GlcNAc(b1-4)GlcNAc(b1-4)GlcNAc(b1-4)GlcNAc
# Procedure, shortened: as §1
# [17] = molecular target: GlcNAc(b1-4)[GlcNAc(b1-6)]GalNAc
# Procedure, shortened: as §1
binder,measurement,setting,value
B1,glycan array binding signal (z-score),Gal3S(b1-4)GlcNAc,-0.08
same,glycan array binding signal (z-score),Gal3S(b1-4)GlcNAc6S,1.09
same,glycan array binding signal (z-score),[1],-0.631
same,glycan array binding signal (z-score),Gal3S4S(b1-4)GlcNAc,0.674
same,glycan array binding signal (z-score),Gal3S6S(b1-4)GlcNAc,0.801
same,glycan array binding signal (z-score),Gal3S6S(b1-4)GlcNAc6S,5.08
same,glycan array binding signal (z-score),Gal4S(b1-4)GlcNAc,-0.004
same,glycan array binding signal (z-score),Gal4S6S(b1-4)GlcNAc,0.619
same,glycan array binding signal (z-score),Gal6S(b1-4)Glc,0.513
same,glycan array binding signal (z-score),Gal6S(b1-4)Glc6S,4.39
same,glycan array binding signal (z-score),Gal6S(b1-4)GlcNAc,0.342
same,glycan array binding signal (z-score),Gal6S(b1-4)GlcNAc6S,-0.845
same,glycan array binding signal (z-score),GalNAc(a1-3)Gal,0.085
same,glycan array binding signal (z-score),GalNAc(a1-3)GalNAc,-0.173
same,glycan array binding signal (z-score),GalNAc(b1-3)Gal,-0.03
same,glycan array binding signal (z-score),[2],-0.689
same,glycan array binding signal (z-score),GalNAc(b1-3)GalNAc,-0.822
same,glycan array binding signal (z-score),GalNAc(b1-4)GlcNAc,0.264
same,glycan array binding signal (z-score),Glc(a1-4)Glc,-0.843
same,glycan array binding signal (z-score),Glc(a1-6)Glc(a1-6)Glc,-0.279
same,glycan array binding signal (z-score),Glc(b1-4)Glc,1.96
same,glycan array binding signal (z-score),Glc(b1-6)Glc,-0.325
same,glycan array binding signal (z-score),GlcA(b1-3)Gal,-0.266
same,glycan array binding signal (z-score),GlcA(b1-3)GlcNAc,0.008
same,glycan array binding signal (z-score),GlcA(b1-6)Gal,0.678
same,glycan array binding signal (z-score),[3],1.11
same,glycan array binding signal (z-score),[4],-0.462
same,glycan array binding signal (z-score),[5],-0.168
same,glycan array binding signal (z-score),[6],-0.126
same,glycan array binding signal (z-score),GlcNAc(b1-3)Gal,-0.113
same,glycan array binding signal (z-score),[7],0.127
same,glycan array binding signal (z-score),GlcNAc(b1-3)Gal(b1-4)Glc,-0.257
same,glycan array binding signal (z-score),[8],-0.271
same,glycan array binding signal (z-score),[9],-0.71
same,glycan array binding signal (z-score),GlcNAc(b1-3)GalNAc,-0.476
same,glycan array binding signal (z-score),GlcNAc(b1-3)Man,-0.618
same,glycan array binding signal (z-score),[10],-0.577
same,glycan array binding signal (z-score),[11],-0.217
same,glycan array binding signal (z-score),[12],-0.441
same,glycan array binding signal (z-score),[13],-0.314
same,glycan array binding signal (z-score),GlcNAc(b1-4)GlcNAc,-0.55
same,glycan array binding signal (z-score),[14],-0.413
same,glycan array binding signal (z-score),[15],5.14
same,glycan array binding signal (z-score),[16],1.53
same,glycan array binding signal (z-score),[17],-0.675
